The whole screen tested about 410,000 compounds, of which about 6,400 (1.6%) were called active. Inconclusive results, whose numbers are uncertain, are shown with a selection of clear calls. The call rests on the fitted dose curve; in most records, active means well fitted inhibition curve with a large enough effect; inconclusive means small, poorly fitted or top-dose-only effect; inactive means no such curve, though single readings can be large or run the other way. Potencies of inconclusive entries are left out as doubtful fits.
target: Glucagon-like peptide 1 receptor (Homo sapiens) (UniProt P43220); test: qHTS of GLP-1 Receptor Inverse Agonists (Inhibition Mode); conditions: HEK293 GLP-1R CRE-luciferase, luminescence, 24 h, GLP-1R form is constitutively active; activity change, negative = inhibition: at 38.3 µM (top of the series) unless noted; further: nearly all actives have a fitted effect of over 55% in size
Outline: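 HEK293 cells stably co-expressing a cAMP-responsive luciferase reporter and constitutively active GLP-1R were seeded, incubated 12 h, then exposed to compounds for 24 h at 37 C. Luminescence was read 12 min after detection reagent; inverse agonists lower signal.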
On the % scale 0 is the no-effect control and ±100 the full control effect; potency means the concentration at half of the fitted maximal effect; tags describe the fitted curve by direction and shape.

Chain of UniProt P43220 (P43220 whole entry, looked up): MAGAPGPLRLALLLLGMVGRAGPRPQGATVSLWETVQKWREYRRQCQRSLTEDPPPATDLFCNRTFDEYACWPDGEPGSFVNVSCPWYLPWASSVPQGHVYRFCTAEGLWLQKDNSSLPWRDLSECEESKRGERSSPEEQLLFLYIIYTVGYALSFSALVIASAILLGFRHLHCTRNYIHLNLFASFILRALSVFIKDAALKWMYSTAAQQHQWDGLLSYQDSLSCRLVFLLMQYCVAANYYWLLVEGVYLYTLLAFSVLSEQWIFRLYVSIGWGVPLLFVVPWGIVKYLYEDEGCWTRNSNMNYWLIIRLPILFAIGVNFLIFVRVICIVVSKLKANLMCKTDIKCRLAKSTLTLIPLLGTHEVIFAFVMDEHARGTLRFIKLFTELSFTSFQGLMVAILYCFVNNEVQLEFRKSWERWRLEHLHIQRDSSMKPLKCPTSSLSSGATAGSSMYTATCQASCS

SMILES | activity change, negative = inhibition | Potency
COc1cc(Cl)c(C)cc1Nc1nc2ccccc2c2nnc(C)n12 | inactive: 9.3% | –
Cc1ccc(S(=O)(=O)Oc2ccccc2)cc1 | – | inconclusive [inhibitor, single point]
CCc1ccc(OCc2nnc(-c3ccccc3Br)o2)cc1 | – | inconclusive [inhibitor, single point]
CCOC(=O)c1c(C)[nH]c(C)c1S(=O)(=O)NCc1ccccc1C | – | inconclusive [inhibitor, full curve, poor fit]
COc1ccc2nc(N(Cc3cccnc3)C(C)=O)sc2c1 | inactive: 10% | –
CN(CC(=O)Nc1cccc(F)c1)C(=O)/C=C/c1cc(Br)ccc1OC(F)F | – | inconclusive [inhibitor, single point]
COc1ccc(-c2cc(-c3ccccc3)n[nH]2)c(O)c1 | – | inconclusive [inhibitor, single point]
O=C(CSc1ccc(Cl)cc1)N1CCN(c2ccc(Cl)cc2[N+](=O)[O-])CC1 | – | inconclusive [inhibitor, single point]
CC(C)NC(=O)c1ccc(Cn2c(SCC(N)=O)nc3ccccc3c2=O)cc1 | inactive: -0.851% | –
CCOc1ccccc1N1CCN(C(=O)c2ccc3c(c2)OCO3)CC1 | – | inconclusive [inhibitor, partial curve, poor fit]
COc1ccc(-c2ccc(SCC(=O)NCC3CCCO3)nn2)cc1OC (stereo not given) | inactive: -9.31% [at 0.307 µM] | –
O=C(NC1(C(F)(F)F)NC(=O)N(CC2CCCCC2)C1=O)c1ccco1 (stereo not given) | inactive: -17.5% | –
COc1ccccc1CN(C)CC(=O)Nc1ccc(Cl)cc1F | – | inconclusive [inhibitor, single point]
CC1CCC2C(=O)N(c3ccc(C(=O)Oc4cccc5cccnc45)cc3)C(=O)C2C1 (stereo not given) | – | inconclusive [inhibitor, full curve, poor fit]
CC[C@@H]1C(c2ccccc2)=NN(c2ccc(Br)cc2)[C@H]1C(=O)N1CCOC1=O | – | inconclusive [inhibitor, single point]
Cc1ncc(CO)c2c1Oc1nc(-c3ccccc3Cl)nc(SCc3ccccc3F)c1C2 | inactive: 3.21% | –
O=C(Nc1ccc(N2CCCC2)c(Cl)c1)c1ccc2c(c1)OCCO2 | – | inconclusive [inhibitor, partial curve, poor fit]
Cc1cc(C)cc(C(O)c2ncc(-c3ccc4ccccc4c3)[nH]2)c1 (stereo not given) | – | inconclusive [inhibitor, single point]
Cc1ccc(NC(=O)c2c(C(F)(F)F)nn(C)c2SCc2ccc(Cl)cc2)cc1C | – | inconclusive [inhibitor, full curve]
O=C(CN1CCN(C(=O)C2CC2)CC1)Nc1cc(C(F)(F)F)cc(C(F)(F)F)c1 | – | inconclusive [inhibitor, partial curve, poor fit]

SMILES | activity change, negative = inhibition | Potency
CCOC(=O)C1(CC2CCCCO2)CCN(C(=O)Nc2ccc(SC)cc2)CC1 (stereo not given) | – | inconclusive [inhibitor, partial curve, poor fit]
N=C(N)SCc1cn(-c2ccccc2)nc1-c1ccc(Br)cc1 | – | inconclusive [inhibitor, partial curve, poor fit]
Fc1ccc(N2CCN(Cc3cn[nH]c3-c3ccccc3)CC2)cc1 | – | inconclusive [inhibitor, single point]
COc1cc(Cl)ccc1OC1(C)CCN(Cc2ccc3ccccc3c2)C1 (stereo not given) | – | inconclusive [inhibitor, single point]
Cc1cc(SCC(N)=O)nc(SCC(=O)c2ccccc2)n1 | inactive: 9.66% | –
Cc1noc(C)c1S(=O)(=O)N(CC(=O)NC(C)c1ccccc1)c1ccc(C(C)C)cc1 (stereo not given) | – | inconclusive [inhibitor, full curve, poor fit]
O=C(Nc1ccccc1N1CCN(c2ccccc2)CC1)c1cccc(F)c1 | – | inconclusive [inhibitor, single point]
CCCCCc1cc(=O)oc2c(C(CCN3CCCCC3)c3ccc(OC)cc3)c(OC)cc(OC)c12 (stereo not given) | – | inconclusive [inhibitor, partial curve, poor fit]
CCN(CC)CCNC(Cc1ccccc1)c1cccc(OC)c1 (stereo not given) | – | inconclusive [inhibitor, partial curve, poor fit]
CCOc1ccc(N(CC(=O)NCc2ccccc2)S(=O)(=O)c2ccc(C)cc2)cc1 | inactive: -25.9% | –
CCn1c(C)c(C)c2cc(C(=O)N3CCN(c4ccccc4)CC3)ccc21 | – | inconclusive [inhibitor, single point]
CCc1ccc2oc(C(=O)Nc3cccnc3)c(C)c2c1 | – | inconclusive [inhibitor, partial curve, poor fit]
Cc1ccc(S(=O)(=O)n2c(CN3CCCC(C)C3)nc3ccccc32)cc1 (stereo not given) | – | inconclusive [inhibitor, partial curve, poor fit]
Cc1nn(Cc2ccc(Cl)cc2Cl)c(Cl)c1/C=C/C(=O)OCC(=O)NCC(F)(F)F | – | inconclusive [inhibitor, single point]
Cc1cc(CSc2ccc(Cl)cc2)ccc1N | – | inconclusive [inhibitor, partial curve, poor fit]
O=C1C(Cc2cccc([N+](=O)[O-])c2)SC(=Nc2ccccc2)N1c1ccccc1 (stereo not given) | – | inconclusive [inhibitor, single point]
COc1ccccc1NC(=S)N(Cc1ccco1)Cc1cc2cccc(C)c2[nH]c1=O | – | inconclusive [inhibitor, single point]
Cc1ccc(NC(=O)CSc2nc(N)cc(=O)[nH]2)cc1S(=O)(=O)N1CCCCC1 | inactive: 3.78% | –
CCc1noc(C)c1C(=O)Nc1nc(-c2ccc(Cl)cc2Cl)cs1 | – | inconclusive [inhibitor, full curve, poor fit]
CCCc1nc2ccccc2c(C(=O)OCC(=O)NCc2ccc3c(c2)OCO3)c1CC | – | inconclusive [inhibitor, partial curve]

— PubChem BioAssay AID624417 (National Center for Advancing Translational Sciences (NCATS), 2012)
